From article PMC4336329 (PLoS ONE, 2015) come the findings set out here.

The campaign covered roughly 310,000 compounds. About 2,200 (0.71%) showed an effect of 50% or more. The effect is printed as a negative number. Some of the results follow.

Sequence of human ether-à-go-go-related gene (hERG) potassium channel (Q12809 whole entry, looked up): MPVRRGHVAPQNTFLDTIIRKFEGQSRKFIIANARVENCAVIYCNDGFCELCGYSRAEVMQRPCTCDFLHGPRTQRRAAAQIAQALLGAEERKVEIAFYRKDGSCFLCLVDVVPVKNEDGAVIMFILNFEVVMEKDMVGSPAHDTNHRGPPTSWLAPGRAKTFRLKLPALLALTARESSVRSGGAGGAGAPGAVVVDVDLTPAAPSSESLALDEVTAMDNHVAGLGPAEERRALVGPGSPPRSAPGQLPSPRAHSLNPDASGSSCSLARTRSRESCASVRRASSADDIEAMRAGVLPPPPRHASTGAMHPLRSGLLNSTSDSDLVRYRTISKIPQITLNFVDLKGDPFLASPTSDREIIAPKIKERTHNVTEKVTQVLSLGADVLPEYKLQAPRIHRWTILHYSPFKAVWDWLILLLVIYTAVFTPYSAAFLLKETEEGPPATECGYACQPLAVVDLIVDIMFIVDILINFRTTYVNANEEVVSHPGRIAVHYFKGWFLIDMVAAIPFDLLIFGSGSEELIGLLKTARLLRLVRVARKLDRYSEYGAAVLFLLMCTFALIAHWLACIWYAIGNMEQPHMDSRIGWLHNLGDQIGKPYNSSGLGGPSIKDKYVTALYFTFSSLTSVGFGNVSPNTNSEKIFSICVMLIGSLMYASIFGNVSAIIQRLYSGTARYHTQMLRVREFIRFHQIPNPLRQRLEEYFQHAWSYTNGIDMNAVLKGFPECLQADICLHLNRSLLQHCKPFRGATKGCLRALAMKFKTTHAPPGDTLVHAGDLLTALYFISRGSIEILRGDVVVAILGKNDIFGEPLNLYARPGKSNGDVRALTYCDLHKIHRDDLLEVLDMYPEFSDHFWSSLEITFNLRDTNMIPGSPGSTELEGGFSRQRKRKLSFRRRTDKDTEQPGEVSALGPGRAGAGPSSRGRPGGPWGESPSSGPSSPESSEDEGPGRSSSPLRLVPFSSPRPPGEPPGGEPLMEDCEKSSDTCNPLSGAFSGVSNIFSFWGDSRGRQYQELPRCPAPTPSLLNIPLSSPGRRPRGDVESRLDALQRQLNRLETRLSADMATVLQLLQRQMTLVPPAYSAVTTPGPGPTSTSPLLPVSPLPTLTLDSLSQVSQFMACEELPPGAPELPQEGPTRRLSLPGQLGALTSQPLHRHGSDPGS

This assay addresses human ether-à-go-go-related gene (hERG) potassium channel (human, UniProt Q12809). Description: primary screen, population patch clamp on CHO cells stably expressing hERG.
Regarding `Fc1ccccc1CSc1ncnc2c1oc1ccccc12`, the “hERG current change (%, negative = inhibition) at 1uM” value turned out to be 9.4%. Then `O=C(O)C1C(C(=O)O)C1(c1ccccc1)c1ccccc1` (centres unmarked), with 14.1%; and `COc1ccc(OC)c(NC(=O)CSc2nc3n[nH]c(C)c3c(=N)n2-c2cccc(Cl)c2C)c1`, with 9.76%. Regarding `NNC(=O)/C=C/c1ccc(Cl)cc1Cl`, the “hERG current change (%, negative = inhibition) at 1uM” value is 7.44%. As for `COc1ccc(CCNC(C)CCc2ccc(OC)cc2)cc1` (centres unmarked), the “hERG current change (%, negative = inhibition) at 1uM” value is reported as -2.61%. With `Cc1ccc(Cl)cc1N1CCN(C(=O)c2cn(C)c(=O)c3c2c2ccccc2n3C)CC1`, the “hERG current change (%, negative = inhibition) at 1uM” value is 5.27%. Then `COc1cccc(/C=N/NC(=O)NC23CC4CC(CC(C4)C2)C3)c1O`, with 6.53%; and `O=C(Cn1c2ccccc2c(=O)c2ccccc21)N/N=C/c1cc([N+](=O)[O-])ccc1N1CCCCCC1`, with 9.02%; and `O=C(Nc1cc(S(=O)(=O)N2CCCCC2)ccc1Cl)C1=NN(c2ccccc2)C(=O)CC1`, with 13.7%. The value for `O=C(/C=C/c1ccc(-c2cccc([N+](=O)[O-])c2)o1)N1CCOCC1` was 11.8%; that for `CCN1c2ccc(S(=O)(=O)N3CCOCC3)cc2N(Cc2ccc(OC)cc2)C1C` (centres unmarked) was 11.7%. Then `CC1CCC(NC(=O)c2cccc(S(=O)(=O)N3CCN(c4ccc(F)cc4)CC3)c2)CC1` (centres unmarked), with 11.2%; and `COc1ccc(/C=N\NC(=O)C2COc3ccccc3O2)cc1O` (centres unmarked), with 4.76%; and `C#CCOCCOCCOCCNc1nc(N2CCN(C(=O)[C@H](CCCCN)n3cc([C@@H](N)CC(C)C)nn3)CC2)nc(N2CCN(C(=O)[C@H](CCCCN)n3cc([C@@H](N)CC(C)C)nn3)CC2)n1.Cl`, with 7.45%.

Consider `Cc1c(C(=O)NCc2cccs2)oc2ccccc12`, for which the “hERG current change (%, negative = inhibition) at 1uM” value is recorded as 4.62%. The value for `CCOc1ccc(C(C)NC(=O)c2cccnc2OCC)cc1OCC` (centres unmarked) was 13.3%; that for `CC(=O)Nc1ccc(S(=O)(=O)NC2=NCN(CCOC(=O)c3ccccc3)CN2)cc1` was 4.56%. Then `COc1cc(/C=N/NC(=O)c2ccc([N+](=O)[O-])cc2Cl)cc(Br)c1O`, with 13.1%. For the compound `O=C(CCCc1cccs1)Nc1nccs1`, the “hERG current change (%, negative = inhibition) at 1uM” value turned out to be 28.1%.

Take `COc1ccc(C(CNC(=O)c2cccc(S(=O)(=O)Nc3ccccc3OC)c2)N2CCOCC2)cc1` (centres unmarked): the “hERG current change (%, negative = inhibition) at 1uM” value is recorded as -8.5%. Consider `C/C(=N\N1CCCCC1)c1c(O)[nH]c(=O)[nH]c1=O`, for which the “hERG current change (%, negative = inhibition) at 1uM” value worked out at 1.29%.

For the compound `COc1cccc(-n2c(SCC(=O)NCCC3=CCCCC3)nc3n[nH]c(C)c3c2=N)c1`, the “hERG current change (%, negative = inhibition) at 1uM” value is listed as 4.2%.

In the case of `O=C(Cc1ccccc1[N+](=O)[O-])N1CCN(S(=O)(=O)c2ccccc2)CC1`, the “hERG current change (%, negative = inhibition) at 1uM” value is reported as 10.4%. In the case of `COc1cccc(C(=O)C2CCCN(C(=O)c3ccccn3)C2)c1` (centres unmarked), the “hERG current change (%, negative = inhibition) at 1uM” value was found to be 9.39%.

For `C[C@H](NC(=O)N1CCn2c1nc1ccccc12)C(=O)N1CCCCC1`, the “hERG current change (%, negative = inhibition) at 1uM” value is listed as 15.1%. The value for `Cn1c(SCc2ccc3c(c2)OCO3)nnc1-c1ccccc1` was 10.4%; that for `COC(=O)c1cnn(-c2cc(Oc3ccccc3)ncn2)c1N` was -9.93%; that for `Cc1ccc(NC(=O)COC(=O)c2csc3c2CCC(C)C3)cc1S(=O)(=O)N1CCCCC1` (centres unmarked) was 4.05%. The value for `CCCn1c(N)c(N2CCCCC2)c(=O)n(CC(=O)Nc2ccccc2)c1=O` was 14.7%; that for `CN(CCO)C1=CC(=O)CC(C)(C)C1` was 11.2%; that for `CC12CCC(C/C1=N/O)C2(C)C` (centres unmarked) was 10.6%. The value for `COc1ccccc1NC(=O)C1CCCN(S(=O)(=O)c2ccccc2)C1` (centres unmarked) was 16.7%. For `CS(=O)(=O)N(CC(=O)Nc1ccc(F)cc1)C1CCCCC1`, the “hERG current change (%, negative = inhibition) at 1uM” value came to 14.5%. The value for `Cc1ccc(S(=O)(=O)NCC(=O)OCN2C(=O)c3ccccc3C2=O)cc1` was 8.69%; that for `O=C(NNc1ccccc1C(F)(F)F)c1cccs1` was 7.55%; that for `CC(C)(C)n1cnc2cc(NCc3ccc(Br)cc3)ccc21` was 6.74%. The value for `CCNC(=S)N/N=C(\C)c1ccco1` was 18.4%; that for `O=C(Nc1ccc(O)cc1)c1cc(S(=O)(=O)N2CCCC2)ccc1Cl` was 5.73%. Regarding `C=C(C)CNC(=S)Nc1cccc2cnccc12`, the “hERG current change (%, negative = inhibition) at 1uM” value amounted to 16.7%. Then `Cc1nc(C)c(C(=O)NNC(=O)Nc2ccc(Cl)cc2)s1`, with 15.2%. The value for `Cc1ccc(OCc2nnc(SCC(=O)N3CCc4ccccc43)n2C)cc1` was 19.9%; that for `COc1ccc(CCC(=O)OCC(=O)Nc2ccc(C)c(S(=O)(=O)N(C)C)c2)cc1` was 12.5%; that for `CCCn1c(C(C)C)n[nH]c1=S` was 12.2%.

As for `CN(CC(=O)Nc1ccc(F)c(F)c1F)c1ncnc2sccc12`, the “hERG current change (%, negative = inhibition) at 1uM” value is 11.7%.
